Our source for the binding signal values is article PMC12136788.

Substitutions are numbered along the chain they refer to. The list shows a part of the results.

T1: UNK ZnF1-3 (human, UniProt Q9C0B0 31-174)
T1 sequence: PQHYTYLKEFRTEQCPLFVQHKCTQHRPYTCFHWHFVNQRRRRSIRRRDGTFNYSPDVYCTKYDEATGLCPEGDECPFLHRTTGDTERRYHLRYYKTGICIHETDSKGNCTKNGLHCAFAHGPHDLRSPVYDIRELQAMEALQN

B1: chr10:82349929:82349930:+_ENSMUSG00000020250_ENSMUST00000020484|mus_hu|motif|central (ssRNA)
RNA: GGGAGUUCUACAGUCCGACGAUCAUAACAUUUGUUGUUAUCUCUUGACGGAAUCGUCCAUUCCAAUGGCCAAAAGUAACGGUGGUAAACCUCAAUAUUUUCUUCCCCAAACUUCUCCACAGCUUUCUCCUCAGAAAGGCCACACAACAGAGGAUUGAGCAUCA
B2: chr6:160200208:160200209:-_ENSG00000120438_ENST00000420894|hu_mus|FALSE|FALSE (ssRNA)
RNA: GGGAGUUCUACAGUCCGACGAUCAAUCCGAAGGAUGGUGAUUGCAGCCUCUGUUGCGAACUUCAGGCUCUUCACUUUAACUAUGGUUGGUUCAAACACCCCUGCUUGCUUGUUGUCUCGUGGUUUCCCAUGGACCAAAUCAAGCAACAGAGGAUUGAGCAUCA
B3: chr5:132216804:132216805:-_ENSG00000072364_ENST00000265343|hu_mus|FALSE|FALSE (ssRNA)
RNA: GGGAGUUCUACAGUCCGACGAUCAGAUAUCAGCUUGGCAUCCUGCCGAAGCCAAUGCAGUCCCUGCCGGGUGUAACGAGCCAGAUCUGUCAUGAUGCUUGCAUUAAAGAUGAGAGGGCCCAUCACUUUGUCCAGUUCAGCAAACAACAGAGGAUUGAGCAUCA
B4: chr12:105536279:105536280:+_ENSG00000136051_ENST00000332180|hu_mus|hu_hu_hu_mus_True|18_18 (ssRNA)
RNA: GGGAGUUCUACAGUCCGACGAUCAGCACUGAACAUGUAAUGUAAUCUGGCUGCAUCGACAGCAUUUUCAUAUACAUCAUCUAAAUAAAUCGGGAAGACAGCGCGAUGCCAGUAUAAAAAACAACAGUCACACUGUGCUUGGACCAACAGAGGAUUGAGCAUCA
B5: chr5:144087797:144087798:-_ENSMUSG00000001844_ENSMUST00000161915|mus_mus|FALSE|FALSE (ssRNA)
RNA: GGGAGUUCUACAGUCCGACGAUCCCUCUGGAGGCACUGCGGGAUUACCCUGGAGCACACCUGUGCUCCUCCAAGGACCACGGCCUUCAAACGCUGGCUUUUUGUGAAGAUGCAGAUCAGGACAACACAAAUCAAUAAGAAGGCCAACAGAGGAUUGAGCAUCA
B6: chr7:89982137:89982138:+_ENSG00000105793_ENST00000417207|hu_hu|FALSE|FALSE (ssRNA)
RNA: GGGAGUUCUACAGUCCGACGAUCGGAUAACCCAUUCCACCGGAUCCUCCCCUGGUGAAGAGUCUUAGCUUAUCGAUGAAAUUUCCAUACUUUCUGAACAACACGCAACUGCAAUGCACCAUGGCUGCAACAGGCCAGGAAACCCAACAGAGGAUUGAGCAUCA
B7: chr6:40197388:40197389:+_ENSMUSG00000057716_ENSMUST00000061740|mus_mus|mus_mus_mus_hu_False|58_58 (ssRNA)
RNA: GGGAGUUCUACAGUCCGACGAUCGAGACACUGGGGUGGAUUUAUUCCACCUCUGUUUGGGUGCUAGCCACUAAGACAGCUAUUUUGGGAUUCAUGGCCUUGAAUAUCAAGAGGGAAAGGAAGAGGAUGGAAAGAGUCAAGAGUCAACAGAGGAUUGAGCAUCA
B8: chrX:160355682:160355683:+_ENSMUSG00000031367_ENSMUST00000069041|mus_hu|FALSE|FALSE (ssRNA)
RNA: GGGAGUUCUACAGUCCGACGAUCGACAUUUUUCUUGGAUGUUUCCUGAACUUCCCCUCCCAAAAGAAACUCAUCCAAAAUAAAAUAAGCCUUCUCAAAAUUAAAGAUGAUAUCUAGUUCACAGACACUGCCGAAAUACUUGUCCAACAGAGGAUUGAGCAUCA
B9: chr2:158593201:158593202:-_ENSG00000115170_ENST00000434821|hu_hu|FALSE|FALSE (ssRNA)
RNA: GGGAGUUCUACAGUCCGACGAUCUGAAAUCUUUGCUUCUAAAUCAGUAAUAUAUUCGGUGGUGUCACGUGGGUAAUGGCUAAAUACGUUCUGCAUAUGAACUGAAAAAAAGUUACAGUCUACACACAUACAAAUGUGAAGCACCAACAGAGGAUUGAGCAUCA
B10: chr1:154246031:154246032:+_ENSG00000143575_ENST00000328703|hu_hu|FALSE|FALSE (ssRNA)
RNA: GGGAGUUCUACAGUCCGACGAUCACCUGGAAGUUCAGGAGGAUGGGAAGGCAAGGUCCAGGCCCCCAUAUCGCUGAAGAUGCUAUUGAAAUCUCGUACUAGGUCAUCAAAGCCGAAGUUAUCGUGGAAACGUAUCCCUCCUCCCAACAGAGGAUUGAGCAUCA
B11: chr5:128440902:128440903:+_ENSG00000066583_ENST00000173527|hu_mus|hu_hu_hu_mus_True|58_78 (ssRNA)
RNA: GGGAGUUCUACAGUCCGACGAUCUUGAACGGUGCUGCCAAGUCCUUUGGGGUAUUGUUCUGUUACAAUAACUGGAAUUCCUAAAAUCCGAGCUCCUUGCAACAGUCUCUGUCCCACACUAAUGAUGUCCCCAAAGUAUUUGAUCAACAGAGGAUUGAGCAUCA
B12: 54241237_54241357_4600_CDS_ENSMUSG00000061603_ENSMUST00000095737|mouse|control|control (ssRNA)
RNA: GGGAGUUCUACAGUCCGACGAUCUUCAUGGAGGGGCGCGUCUGGUUGUGACUCAGAAGUCUGAUGUUUAGGUUUGCAGGACUUUUUAUCAAAAUAGAAACCACGAAGAAGGGGAUCCUCCAAAUGUGCCUUCUCACUCUGCGGCAACAGAGGAUUGAGCAUCA
B13: chr3:10015032:10015033:+_ENSMUSG00000027533_ENSMUST00000029046|mus_mus|mus_mus_mus_hu_True|88_88 (ssRNA)
RNA: GGGAGUUCUACAGUCCGACGAUCGUUUUUACCAUCACAAGUGAUGAUACAGUCUGGCUUGGCCAUUGCGCCCAUUUUUCGCAAAGCUAUUCCCACUCCUAGCUCCUUCAUGUAUUCAUCAAAGCCUUUGCUGUCCACCAGGCGCAACAGAGGAUUGAGCAUCA
B14: 65867278_65867398_8407_3pUTR_ENSMUSG00000044647_ENSMUST00000122912|mouse|control|control (ssRNA)
RNA: GGGAGUUCUACAGUCCGACGAUCCACUCCCCUAACAUGACAGUAAUCUUAAAAAGAUAAAUAUAGAUGAAUAAAAACUGCCUAGUGCCUUUAUUUUCCCAAAGCAGGUUACAUUACAAAGUAUCCGAGUACCUACAUUCUCCUCAACAGAGGAUUGAGCAUCA
B15: chr3:10015032:10015033:+_ENSMUSG00000027533_ENSMUST00000029046|mus_mus|mus_mus_mus_hu_True|28_108 (ssRNA)
RNA: B13 RNA with U27G, A30G, G51A, U114C
B16: chrX:153986339:153986340:-_ENSMUSG00000046873_ENSMUST00000058098|mus_mus|FALSE|FALSE (ssRNA)
RNA: GGGAGUUCUACAGUCCGACGAUCCACCAGGGACAUAAGACAUUCCAAGCUUUACUAUGUCAACAUAUAUUUACAGUAACUAUUCGACAAUCCUUUUUACAGCUUAAAUAGAAGCAUGCUUUUCUAGCCAUAAAUAACACUAAUCAACAGAGGAUUGAGCAUCA
B17: 246829073_246829193_2373_3pUTR_ENSG00000162852_ENST00000366513|human|control|control (ssRNA)
RNA: GGGAGUUCUACAGUCCGACGAUCUCCAGUGCUUCAGUUCUGCCACUCCCUGAAGUAACUUAGUGUAAUAGAAGUCCAUGUUGUCUGCAAAGUCAGUACAAACAGGUGACUCCAUGUCACCGAAAGUGCAGUAUAAUGCAGUUCCAACAGAGGAUUGAGCAUCA
B18: chr2:165877891:165877892:+_ENSMUSG00000027678_ENSMUST00000088095|mus_mus|FALSE|FALSE (ssRNA)
RNA: GGGAGUUCUACAGUCCGACGAUCGAACCUCUGGAUACAUCUUCGGAUUAUGUCUUCAAAGCCAGGCCUCAUGGAAGAUCUAAGUGAGUUUGUAUCUAUAUUGACAACCUUUCCGGAAAGGUCAUGUCUGGUAAUAAAGCUCUCCAACAGAGGAUUGAGCAUCA
B19: chr18:25636641:25636642:-_ENSMUSG00000024268_ENSMUST00000025117|mus_mus|FALSE|FALSE (ssRNA)
RNA: GGGAGUUCUACAGUCCGACGAUCUCAUUUACCAAAGAUAAAUAUCGUGCUUUCAUUAAAUAGUUUUCCUUGUUUUUUCUCUAUCAUUACAAUUAAAAGUCCUACAAAAUAUGCAAAUUUAUUUACAGAAAAACAGAGCCAGCACAACAGAGGAUUGAGCAUCA
B20: chr6:118368571:118368572:-_ENSMUSG00000030138_ENSMUST00000032237|mus_mus|motif|central (ssRNA)
RNA: GGGAGUUCUACAGUCCGACGAUCGUCUUGCAGGUGCCGUUUCUUUUUCUUCUCAGCUUUAGGCCCACUGUGCUUCUUCCGGUGUUUCUUGUGGUCCUUGGUCUCCAUGGUGGCUAUUUAUCUACUACAAAUAAGUCUUACCUUCAACAGAGGAUUGAGCAUCA
B21: chr11:104189435:104189436:+_ENSMUSG00000018411_ENSMUST00000106992|mus_mus|motif|central (ssRNA)
RNA: GGGAGUUCUACAGUCCGACGAUCGCCCUGGGAGCCUGAUCACAAACCCUGCUUGGCCAAGGAAGCAGACACUUCAUCGGCGGGUGUGGCAAGCUGUGGUGAGUCCACCAUGUCGAUGCUGCCCGUGGAAGACACAUUGCUGAGCAACAGAGGAUUGAGCAUCA
B22: chr6:38652254:38652255:-_ENSG00000124767_ENST00000373365|hu_hu|hu_hu_hu_mus_False|1_8 (ssRNA)
RNA: GGGAGUUCUACAGUCCGACGAUCCGAGAACUUCAUAGCAGGGAAGUCAAGCUUCUGCAGGAGGGUCAGUCCAAGAACCCUCGUAUAAAAAUCCAGGGACUUCUUAGGAUCCUUAAUUCUUAGCAUCGUCUGCUGCAAUAGAAACAACAGAGGAUUGAGCAUCA

The experiment deals with T1, UNK ZnF1-3. Description: nsRBNS (natural sequence RNA bind-n-seq); RBNS binding buffer (assumed for nsRBNS): 25 mM Tris pH 7.5, 150 mM KCl, 3 mM MgCl2, 0.01% Triton X-100, 500 ug/ml BSA, 20 U/ml SUPERase-In, 4 C; UNK is unkempt and MSI1 is Musashi-1; names of the RNAs are library labels; protein concentration not given here; high values mean tight binding.
In the case of B1, the binding signal was determined as 0.85 enrichment R.

With B2, the binding signal came to 0.501 enrichment R.

B3 displayed a binding signal of 0.924 enrichment R.

Take B4: the binding signal amounted to 2.33 enrichment R.

B5 yielded a binding signal of 1.27 enrichment R.

With B6, the binding signal worked out at 1.05 enrichment R.

Molecule B7 yielded a binding signal of 1.53 enrichment R.

B8 registered a binding signal of 1.61 enrichment R.

In turn, B9 yielded a binding signal of 1.15 enrichment R.

Turning to B10, the binding signal came to 1.33 enrichment R.

The molecule B11 gave a binding signal of 0.759 enrichment R.

Turning to B12, the binding signal was found to be 0.947 enrichment R.

B13 gave a binding signal of 0.638 enrichment R.

The molecule B14 displayed a binding signal of 2.74 enrichment R.

Consider B15, for which the binding signal is 0.785 enrichment R.

Take B16: the binding signal came out at 1.2 enrichment R.

In turn, B17 came in with a binding signal of 0.867 enrichment R.

Turning to B18, the binding signal worked out at 0.796 enrichment R.

Consider B19, for which the binding signal amounted to 1.15 enrichment R.

B20 registered a binding signal of 0.282 enrichment R.

Take B21: the binding signal was found to be 0.915 enrichment R.

The molecule B22 displayed a binding signal of 0.785 enrichment R.
